In all, about 52,000 compounds went through this assay and about 4,300 (8.3%) were called active. No stated cut-off is given here; in the data, active means survival mostly below about 52% (no sharp cut-off); inactive means mostly above about 56%. The list shows a part of the results.

For the assay, the system named is DeltatarO mutant. In words: growth inhibition of S. aureus wild type versus tarO mutant, primary screen, teichoic acid synthesis inhibitors, RN4220, OD600 (AID 463173). The note with it: OD600, 18 h, active compounds read low, screened at 18.75 µg/mL (by protocol).
In the case of `CCOc1ccc(CCNC(=O)CSc2cc(=O)n(C)c3ccc(Cl)cc23)cc1OCC`, the survival is inactive: 123%.
The value for `O=C(O)CCCNC1=NCCN1` was inactive: 98%; that for `Cc1ccc(OCC(O)Cn2c(=N)n(CCN3CCCCC3)c3ccccc32)cc1` (configuration not stated) was active: 36%.
For the compound `Cc1ccc(-n2ncc(C(=O)NCCCN3CCCCC3)c2C2CCN(C(=O)OC(C)(C)C)CC2)cc1`, the survival is inactive: 80%.
As for `COc1cccc(OC)c1C(=O)Nc1ccc(S(=O)(=O)Nc2nccc(C)n2)cc1`, the survival was inactive: 84%.
For `COc1ccc(C(C(=O)NCc2cccs2)N(Cc2ccco2)C(=O)Cn2nnc(-c3cccs3)n2)cc1` (configuration not stated), the survival was inactive: 93%.
Turning to `Cc1ccc(NC(=O)c2c(C)nc3sc(C(=O)Nc4ccc(F)cc4)c(N)c3c2-c2ccccc2Cl)c(C)c1`, the survival is inactive: 65%.
As to `CCOC(=O)c1c(C)n(-c2ccccc2)c2ccc(OC(=O)c3ccccc3NC(=O)C(C)(C)C)cc12`, the survival is inactive: 55%.
For the compound `CC(=O)c1ccc(NC(=O)Cn2c(=O)n(Cc3ccco3)c(=O)c3sc4ccccc4c32)cc1`, the survival was inactive: 51%.
In the case of `Cc1ccc(N(Cc2cccs2)C(=O)COc2cccc(C)c2)cc1`, the survival was inactive: 62%.
Take `CCc1nnc(SCC(=O)N2c3ccc(F)cc3CCC2C)n1C` (configuration not stated): the survival was inactive: 66%.
Turning to `COc1ccc(C2=NC(C)(C)N(CC(=O)Nc3ccc(F)c(F)c3)C2=O)cc1`, the survival is inactive: 92%.
Turning to `Cc1nn2c(=O)cc(COC(=O)CNC(=O)c3ccc(F)cc3)nc2s1`, the survival was inactive: 55%.
The value for `CCN1CCN(c2cc(C)c3cc(NC(=O)c4cc(Cl)ccc4OC)ccc3n2)CC1` was active: 8%.
For `CCOc1ccc2c(c1)c(=O)c(S(=O)(=O)c1ccccc1)cn2CC(=O)Nc1ccccc1OC`, the survival is inactive: 70%.
For `Cc1ccc(CNC(=O)C2CCN(S(=O)(=O)c3ccc4c(c3)CCCN4C(=O)C3CCC3)CC2)cc1`, the survival is inactive: 80%.
For the compound `O=C(NCCSc1c(-c2ccccc2)[nH]c2ccccc12)c1ccc(S(=O)(=O)N2CCOCC2)cc1`, the survival is inactive: 70%.
As for `Cc1nc(-c2ccccc2)sc1CCNS(=O)(=O)c1ccccc1`, the survival is inactive: 73%.
Take `O=C(O)c1cc(-c2ccc(C(F)(F)F)cc2)nc2n[nH]c(-c3ccccc3)c12`: the survival is inactive: 83%.
For the compound `CC(=O)c1ccc(NC(=O)Cn2cc3c(n2)CCCC3)cc1`, the survival is inactive: 83%.
In the case of `CCc1ccc(S(=O)(=O)c2cn(CC)c3cc(N4CCOCC4)c(F)cc3c2=O)cc1` it was inactive: 88%.
The value for `CCOc1ccc(CN2CCN(c3ncnc4sc5c(c34)CC(C)CC5)CC2)cc1` (configuration not stated) was inactive: 60%; that for `CCN(CC)CCN1C(=O)C2C3c4ccccc4C(c4ccccc43)C2C1=O` (configuration not stated) was inactive: 96%.
On to `COc1ccc(Cl)cc1NC(=O)c1ccc2c(c1)CCCN2S(C)(=O)=O`, for which the survival is inactive: 66%.
Take `COc1ccccc1C(=O)Nc1nnc(S(=O)(=O)N(C)c2ccc(Cl)cc2)s1`: the survival is inactive: 95%.
As for `Cc1cccc(C)c1NC(=O)Cn1c(=O)n(CCC(=O)NCc2ccccc2Cl)c(=O)c2sccc21`, the survival is inactive: 63%.
Consider `COc1ccc(OC)c(CCNC(=O)c2c(C)oc3ncn(C)c(=O)c23)c1`, for which the survival is inactive: 76%.
As for `CCCCn1c(SCC(=O)N2c3ccccc3Sc3ccccc32)nc2c1c(=O)n(C)c(=O)n2C`, the survival was inactive: 68%.
For the compound `CCOc1ccc(S(=O)(=O)N(CC(=O)NCCc2ccc(OC)c(OC)c2)c2ccccc2)cc1`, the survival was inactive: 49%.
For the compound `Cc1ccccc1Cn1c(CN2CCC(C(=O)NCCN(C)C)CC2)cc2ccccc21`, the survival is inactive: 112%.
As for `Cc1ccccc1NC(=O)CN1C(=O)C(C)(C)c2ccccc21`, the survival is inactive: 80%.
For `COc1cccc(NC(=O)c2cc3c(=O)n(C)c4ccccc4c3n2C)c1`, the survival is inactive: 110%.
`O=C(c1cnn2c1NC(c1ccc(Br)cc1)CC2C(F)(F)F)N1CCCC1` (configuration not stated): the survival is inactive: 71%.
As for `Cc1cc(C)c(S(=O)(=O)NCCc2csc3nc(-c4ccc(Cl)cc4)nn23)c(C)c1`, the survival is inactive: 65%.
Turning to `CC(=O)c1ccc(N2CCN(C(=O)C3CCN(S(=O)(=O)c4c(C)noc4/C=C/c4ccccc4F)CC3)CC2)cc1`, the survival was inactive: 71%.
Regarding `Cc1ccc(C)c(N2CCN(c3nc4ccccc4c(=O)n3-c3ccccc3)CC2)c1`, the survival is inactive: 70%.
Take `O=c1c2c3c(sc2n(Cc2ccc(F)cc2Cl)c(=O)n1-c1ccc(Cl)cc1)CCC3`: the survival was inactive: 146%.
The value for `Cc1ccc(NC(=O)c2sc3ncnc(N(C)C4CCCCC4)c3c2C)cc1` was inactive: 144%.
The value for `C[N+](C)(C)CC(O)COc1ccccc1` (configuration not stated) was inactive: 82%; that for `CCOC(=O)COc1nc(C)c(Br)c(OC)n1` was inactive: 81%.
Regarding `Cc1ccc(C(=O)Nc2ccc3[nH]c(=O)c(=O)[nH]c3c2)cc1`, the survival is inactive: 95%.
As to `CC(C)Oc1ccc(CNC(=O)Cn2c(-c3cccs3)cc3ccccc32)cc1`, the survival was inactive: 74%.
In the case of `COc1cc(NC(=O)CC2C(=O)N(c3cccc(C)c3)C(=O)N2Cc2cccs2)cc(OC)c1` (configuration not stated) it was inactive: 66%; in that of `Cc1ccc(C2CCN(C(=O)Nc3ccc(C)c(C)c3)C2)cc1` (configuration not stated), inactive: 102%.
Turning to `CC1CCC(CC(=O)O)(CC(=O)O)CC1`, the survival was inactive: 85%.
For the compound `CCS(=O)(=O)N1CCc2cc(C(=O)NCCc3ccc(OC)c(OC)c3)ccc21`, the survival was inactive: 69%.
The value for `COc1cccc(C(=O)Nc2ccc(S(=O)(=O)N(Cc3ccccc3)c3ccccc3)cc2)c1` was inactive: 82%.
Consider `O=C(Nc1ccc(Cl)c(-c2nc3cc(Cl)ccc3o2)c1)c1cc2ccccc2o1`, for which the survival was inactive: 70%.
The value for `Oc1c(Cl)cc(Cl)cc1CNn1cnnc1` was inactive: 101%; that for `CCOC(=O)c1c(S(=O)(=O)NCC(=O)N(C)c2ccc(C)cc2)c(C)n(C)c1C` was inactive: 91%; that for `Cc1ccccc1NS(=O)(=O)c1nnc(NC(=O)c2ccco2)s1` was inactive: 88%.
In the case of `COc1ccc(CCC(=O)NCCc2csc(-c3cccc(C)c3)n2)cc1` it was inactive: 87%.
In the case of `Cc1ccccc1-c1nc(SCC(=O)N(C)c2ccccc2)c2c(=O)n(C)c(=O)n(C)c2n1` it was inactive: 67%; in that of `Cc1ccccc1OCc1ccc(-c2nc(C#N)c(N3CCC(C(N)=O)CC3)o2)o1`, active: 38%; in that of `CCOc1ccc2cc(-c3nnc(Nc4ccc(C)cc4)s3)c(=O)oc2c1`, inactive: 80%.
Regarding `COC(=O)CSc1nc2cc(OC)c(OC)cc2cc1C`, the survival was inactive: 95%.
In the case of `COc1ccc(NC(=O)c2ccc(NC(=O)CCS(=O)(=O)c3cccs3)cc2)cc1` it was inactive: 55%.
`CCOc1ccc2c(c1)c(=O)c(S(=O)(=O)c1ccc(Cl)cc1)cn2Cc1ccccc1C`: the survival is inactive: 73%.
As for `CCN(CCCNC(=O)Cn1ncc2c([nH]c3ccc(C)cc32)c1=O)Cc1ccccc1`, the survival is inactive: 79%.
Regarding `COc1ccc(NC(=O)C(=O)NCc2ccco2)cc1`, the survival was inactive: 55%.
Regarding `CC(=O)NNc1nc(Cl)nc(N(C)C)n1`, the survival is inactive: 81%.
On to `Clc1cccc(CSc2nnc(C3CCNCC3)o2)c1`, for which the survival is inactive: 104%.
For the compound `CC(C)n1c(=N)c(C(=O)NC2CCCCC2)cc2c(=O)n3ccccc3nc21`, the survival was inactive: 73%.
On to `CCc1ccccc1N1C(=O)N(CC(=O)c2ccc(OC)cc2)c2ccccc2S1(=O)=O`, for which the survival was inactive: 79%.
Consider `CCc1cccc(NC(=O)Cn2nc3c4cc(F)ccc4n(Cc4cccc(C)c4)cc-3c2=O)c1`, for which the survival was inactive: 84%.
On to `O=C(O)c1ccccc1SC1CC(=O)N(Cc2ccccc2)C1=O` (configuration not stated), for which the survival is inactive: 81%.
Consider `COC(=O)CCN(C(=O)C1CCN(S(=O)(=O)c2c(C)noc2/C=C/c2ccccc2F)CC1)c1ccccc1`, for which the survival was inactive: 113%.
The value for `CC(C)Oc1ccc(C(=O)Nc2nonc2-c2ccc(OC(C)C)cc2)cc1` was inactive: 75%.
The value for `CCCNC(=O)c1cnc2c(-c3ccc(OCC)c(OCC)c3)c(C)nn2c1-c1ccccc1` was inactive: 92%; that for `CCOC(=O)c1cc(C)n(CC2CCC(C(=O)Nc3cc(OC)cc(OC)c3)CC2)c1C` (configuration not stated) was inactive: 144%.
For the compound `COc1cc(NC(=O)CC(c2cccs2)N2Cc3ccccc3C2=O)cc(OC)c1OC` (configuration not stated), the survival was inactive: 49%.
Consider `O=c1[nH]c2cc3c(cc2cc1CN(Cc1ccco1)S(=O)(=O)c1cccc(C(F)(F)F)c1)OCO3`, for which the survival is inactive: 80%.
With `COc1ccc(-c2nc(SCC(=O)Nc3ccc4c(c3)OCCO4)c(-c3ccccc3)[nH]2)cc1`, the survival is inactive: 55%.
In the case of `COC(=O)CC1Oc2ccc(C)cc2-n2cc(-c3ccc(C)cc3)nc21` (configuration not stated), the survival was active: 37%.
With `Cc1ccc(CSc2oc(-c3cccs3)nc2S(=O)(=O)c2ccc(C)cc2)cc1`, the survival is inactive: 135%.
Regarding `Cc1cc(N2CCC3CCCC(C2)N3Cc2ccccc2)n2c(n1)nc1ccccc12` (configuration not stated), the survival is inactive: 83%.
In the case of `COC(=O)c1ccccc1NC(=O)C1=C(C)C(=O)OC12CCC(C)CC2` (configuration not stated) it was active: -23%; in that of `Cc1ccc2oc(C(=O)Nc3sc4c(c3C(=O)NCc3cccnc3)CCCC4)cc(=O)c2c1`, inactive: 63%.
As for `CCOC(=O)/C(C#N)=C/c1ccc(-c2ccc(C)cc2)o1`, the survival is inactive: 98%.
Consider `Cc1ccc(-n2nc3c(=O)n(CCCC(=O)NC(C)c4ccccc4)nc(C)c3c2C)cc1` (configuration not stated), for which the survival is inactive: 67%.
For `COc1ccccc1Cn1cc(C(=O)c2ccc(C)cc2)c(=O)c2cc(F)cc(F)c21`, the survival is inactive: 97%.
In the case of `CCCN(CCC)C(=O)Cn1c(=O)n(Cc2ccc(C(=O)NCCc3ccc(Cl)cc3)cc2)c(=O)c2ccccc21` it was inactive: 106%; in that of `CC(=O)c1ccc(NC(=O)Cn2nc(C(F)(F)F)c3c2CCCC3)cc1`, inactive: 64%.
For `COc1ccc(OC)c(-c2noc(N3CCN(c4cccc(C)c4C)CC3)n2)c1`, the survival is inactive: 88%.
For the compound `CCSc1nn(CC(=O)Nc2cccc(Cl)c2)c(N)c1S(=O)(=O)c1ccc(OC)cc1`, the survival is inactive: 91%.
Regarding `COCCCNC(=O)CCCn1c(=O)c2cccn2c2ccccc21`, the survival was inactive: 76%.
`COc1ccccc1CNC(=O)CCC1N=C2c3ccccc3N=C(SCc3ccc(Cl)cc3)N2C1=O` (configuration not stated): the survival was active: 32%.
